Drawing on the RNAGym collection of RNA variant scans (doi:10.1093/nar/gkz1192), this text covers self-cleavage for 167 variants.

B1: CPEB3 Ribozyme (parent)
chain: UAACAGGGGGCCACAGCAGAAGCGUUCACGUCGCAGCCCCUGUCAGAUUCUGGUGAAUCUGCGAAUUCUGCUGUAUAUCUC

The source gives no read counts; variants with many changes may rest on few reads.

This series covers variants of B1. The experiment in a line: self-cleavage, relative activity (ratio to wild type); higher = more cleavage; in vitro, sequencing. The essentials: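 CPEB3 self-cleaving ribozyme mutant libraries were made by rounds of error-prone PCR, barcoded, and transcribed in vitro with T7 RNA polymerase for 5 hours at 37°C. Cleavage occurred during transcription and a 15 min DNase I step before EDTA stop. RNAs were reverse transcribed with template switching and Illumina-sequenced, with DNA sequencing mapping barcodes to variants. Relative activity is the variant's cleaved/total read fraction divided by wild type's (minimum 5 reads), averaged across three batches.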
In the case of A2G U54A A57G, the self-cleavage was determined as 0.42.
As to A2G G8A A28U A64G U69C U72C U78A, the self-cleavage was determined as 0.05.
As for A2G A15U A20G U51C U60C, the figure is 0.25; as for A2G A28G A64G U67C, 0.2; as for A2G U41C U43C A64G, 0.4.
Consider A2G A15G U43C U54C U69A, for which the self-cleavage was found to be 0.12.
To A2G A21G C23A U51C U54G G55U belongs 0.09; to A2G U26A A35U, 0.28; to A2G G8A G19A, 0.45.
On to A2G C39A U49C, for which the self-cleavage came to 0.05.
To A2G U49A U66C U80G belongs 0.19; to A2G A18U C81U, 0.56; to A2U A3G A56G, 1.03.
To A2G U25C U43A A47U A56G U78A belongs 0.17; to A2G U25C A35U C38A A57G A64U U78G, 0.
To A2G G63U U66C belongs 0.36; to A2G A18U U26A A56G, 0.11.
Turning to A2G A35U A65G, the self-cleavage came out at 0.25.
As for A2G G8C U51G A64U U80C, the figure is 0.07; as for A2G G9U C11A A21U U48C U72C, 0.16; as for A2G G7A A13G A35G U54G U74G, 0.43.
To A2G C4U C71U U80C belongs 1.2; to A2G G7A U43G U51A G52C U78C, 0.04; to A2G U25C A56U A64G A75G, 0.06.
To A2G A18G U43A belongs 1.28; to A2G C23U U49A A64U, 0.08.
On to A2G A18U A45U U51C U54C U58C U78C, for which the self-cleavage was determined as 0.
For A2G C23G U51A U54A A64U U80C, the self-cleavage turned out to be 0.05.
As for A2G G6C C12U A56G C68U, the figure is 0.07; as for A2G A15U C34G U41A U49C, 0.04.
As for A2G A21G G36C U41A C50G U60G, the figure is 0.17; as for A2G G8A A21G U48C U78G, 0.03.
Take A2G U51C A75U: the self-cleavage turned out to be 0.19.
As for A2G G6U U25C C29U, the figure is 0.09; as for A2G A18G C44A U54A U72C, 0.08; as for A2G G9U C14U G22U U43C A47U, 0.13.
As for A2G A35G U41A A56U, the figure is 0.16; as for A2G U69C U74C, 0.64; as for A2G A28G C32A U43A G63A, 0.34.
As for A2G C40U U51C U60A, the figure is 0.2; as for A2G A15G C44A U78C, 0.23.
Take A2G C4U C37A U48C A64U: the self-cleavage is 0.24.
As for A2G G19A G42A, the figure is 0.05.
To A2U A3G A15G C23G U31C belongs 0.36; to A2G G7U A13U G63A, 0.07.
For A2G A45U U51C U58C U69A, the self-cleavage amounted to 0.11.
For the variant A2G C4U C71U, the self-cleavage is 0.6.
As to A2U A13G C37A U69A, the self-cleavage turned out to be 0.14.
As for A2G U43A A57U A77G, the figure is 0.71.
To A2G G9U U25C U43A U51A G70A belongs 0.07; to A2G A18U U54C G70A U72A, 0.08; to A2G A47G U54A, 0.27.
As for A2G A47G U54C, the self-cleavage turned out to be 0.65.
To A2G G6A A13G U41C U60G belongs 0.06; to A2G A21G A56C U60G, 0.35; to A2U A3G C11G A28U A47G C62U, 0.06.
As for A2G A20C A35G C38A U41A U74C, the figure is 0.27; as for A2G G10A A13C U25C U51C, 0.61.
As for A2G U25C C32A G36C U58C U80G, the figure is 0.08; as for A2G A21G C34G U72A U78C, 0.06; as for A2G G8A U31C U43C U78C U80C, 0.07.
As to A2G G7C C12A C40U U49A, the self-cleavage came out at 0.06.
As for A2G C11U C12U A56G, the figure is 0.28; as for A2G A28G C37A U41C U76C, 0.09; as for A2G U31C U43C A64U, 0.08.
On to A2G A15G U25C A45G A56G, for which the self-cleavage amounted to 0.03.
In the case of A2G A56G A57U U60A C71U, the self-cleavage came out at 0.04.
For the variant A2U A5G A21G U41C U72C, the self-cleavage came to 0.38.
As for A2G G8C G9C A18U U31C, the figure is 0.1.
As for A2G C11U A35U C40U A45U A64U U80C, the figure is 0.04; as for A2G U26C U60A G63A U74A, 0.06; as for A2G A35G U80C, 1.21.
As for A2G G8A U26A, the figure is 0.08; as for A2G A28C A35U U51C A77G, 0.06; as for A2G C40A G63A G73A, 0.47.
In the case of A2G G10A U48C U51G, the self-cleavage was 0.1.
To A2G A21U U49A U66A belongs 0.13; to A2G U26C A56G, 0.21; to A2G A45G U54G A64G U67C A77U, 0.06.
As for A2G C27U A28G G63U, the self-cleavage came to 0.49.
As for A2G G7A U72C U78C, the self-cleavage is 0.45.
As for A2U A13G A21G U31C A56G U67A, the figure is 0.07; as for A2G G7A A15C A21G A28G U48A U49C, 0.04; as for A2G A28U A35U C44A A64U C68U U80C, 0.04.
As for A2U A3U U31C, the figure is 1.09; as for A2G G8A C23U A45G U60A, 0.05.
For A2G G7A A15G U80A, the self-cleavage turned out to be 0.17.
As for A2G U25G A57G U80C, the figure is 0.56.
As for A2G G6A A15G U41A U67C, the figure is 0.08; as for A2G U67G U72A, 0.19.
To A2G C11U C32A C34G U69C belongs 0.09.
As to A2G U43C A56G U58A U67C G70U A75G, the self-cleavage was 0.04.
Regarding A2G C50G U58C U66C U80C, the self-cleavage is 0.1.
For A2G A15G G22A C32U A45G A64G U72C, the self-cleavage worked out at 0.13.
To A2G U26C C32U U72C belongs 0.25; to A2G U76A C81U, 0.73.
As for A2G A28G G33A A35U A47G, the figure is 0.12; as for A2G G46U U66C, 0.21; as for A2G A18G A21G A64G U74C, 0.51.
To A2G U43A A56U belongs 0.67; to A2G A18G U67A U69A U78C, 0.29.
On to A2G G30U U67A U78C, for which the self-cleavage was 0.07.
Consider A2U A5G A13G U54C, for which the self-cleavage turned out to be 0.43.
With A2G C11A A35G, the self-cleavage was found to be 0.11.
Regarding A2G A21G A45G, the self-cleavage came to 0.11.
To A2G C12U A35U U78C C81U belongs 0.36; to A2G U26C U74C, 0.72.
As for A2G A21C C23A A64G U78A, the figure is 0.22.
To A2G A15G C34A belongs 0.14; to A2G U51A U60C, 0.14; to A2G A21G C27U U41A A64G, 0.07.
Consider A2G G6U G10A A15G G16A A28U U80A, for which the self-cleavage is 0.1.
To A2G A35U U41A belongs 0.05.
To A2G A18U U41A U66C A77G belongs 0.26; to A2G A15G U49A, 0.15.
In the case of A2G U43C U54C G63C, the self-cleavage was 0.58.
As for A2G U26A A28G, the figure is 0.23; as for A2U A5U U72C, 0.93; as for A2G G9U U69A, 0.29.
To A2G U25C U31C A45U U49A U69G belongs 0.06; to A2G U26C U31C U43A U54C, 0.41.
To A2G G6C A13U G22U U60A A64U belongs 0.07; to A2G U43A A77U, 1.04.
For A2G G10C U25G, the self-cleavage is 0.26.
As for A2G C11U U69A U78C, the figure is 0.27.
To A2G U74C U80C belongs 1.16; to A2G A21G U69C, 0.38; to A2G A45G U54C U60C, 0.59.
On to A2G A35G A47C U48A, for which the self-cleavage came out at 0.25.
To A2G A28U U74A C79U belongs 0.66.
To A2G A15G U25A G52A belongs 0.15.
As for A2G A56U U67A C71G, the figure is 0.22; as for A2G G6A U41C U60A U67A U80C, 1.05; as for A2G A18C G33A A45U U72C U74A, 0.2.
With A2U A3G A13U, the self-cleavage came out at 0.96.
As for A2U A13G A21G U66C A75G, the figure is 0.81; as for A2G A21G U26C A56U, 0.09; as for A2G A64G U80A, 0.57.
Consider A2G G9A G22U, for which the self-cleavage was 0.09.
To A2G C12U U41A belongs 0.31.
A2G U58A A65G: the self-cleavage worked out at 0.22.
As for A2G C23U U25C A28G U41A U60A U76C, the figure is 0.15; as for A2U A5G U43G, 0.41; as for A2G U25G U43A G52A C71U A75G, 0.02.
Take A2U A13G A28G: the self-cleavage turned out to be 0.45.
As for A2G A20G G36A G55A, the figure is 0.2; as for A2G A47G U49C U78C, 0.09.
With A2G U31C U51A, the self-cleavage worked out at 0.63.
As for A2U A5G U26C U51C U58C, the figure is 0.29; as for A2U A5G G33C A35U U51C U72A A77C, 0.14; as for A2G C23U U25C A47G U51C, 0.04.
As to A2G G8A A13G C38A C40A A45U U69G, the self-cleavage stood at 0.04.
To A2G A20G U25G U41C U69C belongs 0.3.
To A2G A20G U26A A28G A65G belongs 0.37.
As for A2G A35G C38A U69A, the figure is 0.27.
On to A2G A20G U60C A77G, for which the self-cleavage was 0.31.
As for A2G G8A G33U U43C, the figure is 0.08.
As for A2U A5U A35G, the figure is 1.17.
Take A2G A15U G22U U31A C44U U66C: the self-cleavage came to 0.07.
As for A2G A28G U43C, the figure is 0.25; as for A2G G8A A45G U72C, 0.42.
Turning to A2G U54C A75G, the self-cleavage stood at 0.81.
To A2G U54C A75U belongs 0.75.
As for A2G U41A U80C, the figure is 0.11; as for A2G A28U A45G A57G, 0.14; as for A2G U26C U69A, 0.24.
As for A2G A20G U26C, the figure is 0.56.
